Laboratory results from a collection of fitness landscapes (doi:10.1016/j.celrep.2020.107928).
In all, about 81,000 sequences were measured (“one-hybrid fitness for binding NBS DNA”: median about -0.1, highest 2% from about 0.36 on). Some of the results follow.

B1: Caulobacter ParB omega fusion; a variant is named by its letters at X, in order, B8GW30 (parent)
chain: MESVVVGEPGMSEGRRGLGRGLSALLGEVDAAPAQAPGEQLGGSREAPIEILQRNPDQPRRTFREEDLEDLSNSIREKGVLQPILVRPSPDTAGEYQIVAGERAWRAAQRAGLKTVPIMVRELDDLAVLEIGIIENVQRADLNVLEEALSYKVLMEKFERTQENIAQTIGKSXSHVANXMRLLXLPDEVQSYLVSGELTAXHARAIAAAADPVALAKQIIEGGLSVRETEALARKAPNLSAGKSKGGRPPRVKDTDTQALESDLSSVLGLDVSIDHRGSTGTLTITYATLEQLDDLCNRLTRGI

Variants of: B1
Test: one-hybrid fitness for binding NBS DNA (the Noc-binding site; scaled: cognate 1, non-cognate 0); higher = stronger binding
Conditions: with NBS DNA site
Procedure, shortened: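 Pre- and post-selection plasmids were Illumina-sequenced, three replicate libraries were pooled, and any variant with under 10 reads was removed. The libraries were Caulobacter ParB with four specificity codons randomised, selected in E. coli USO through a HIS3 reporter whose site is 19 bp from the promoter. Cells grew 48 hours at 37°C on M9 without histidine, with 0.1 mM IPTG and 5 mM 3-AT. Fitness is the log change in variant-to-wild-type read ratio, rescaled against cognate and non-cognate.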

Variant	one-hybrid fitness for binding NBS DNA
DPTC	≤ 0.2
VMTT	≤ 0.2
LCAT	≤ 0.2
TYEH	≤ 0.2
RKEW	≤ 0.2
AAQK	≤ 0.2
YLNT	≤ 0.2
NQWK	≤ 0.2
NCCR	≤ 0.2
HAHV	≤ 0.2
TPVM	≤ 0.2
RELS	≤ 0.2
HKIL	≤ 0.2
REWR	≤ 0.2
DKDT	≤ 0.2
WRDG	≤ 0.2
RPER	≤ 0.2
ASMS	≤ 0.2
MREG	≤ 0.2
MHSD	≤ 0.2
GTTN	≤ 0.2
AYDV	≤ 0.2
DPNR	≤ 0.2
YLIW	≤ 0.2

Variant	one-hybrid fitness for binding NBS DNA
HLPK	≤ 0.2
YAAY	≤ 0.2
VYIS	≤ 0.2
DDKT	≤ 0.2
NAAC	≤ 0.2
KLRR	0.31
WENS	≤ 0.2
TGMF	≤ 0.2
VWNY	≤ 0.2
WNDI	≤ 0.2
RMHK	≤ 0.2
FNPM	≤ 0.2
VLVL	≤ 0.2
SSYF	≤ 0.2
YPGG	≤ 0.2
DMTR	≤ 0.2
CYTF	≤ 0.2
RPHF	≤ 0.2
EHKS	≤ 0.2
SSTL	≤ 0.2
QKWS	0.33
YHTP	≤ 0.2
PCPK	≤ 0.2
NCSM	≤ 0.2

Variant	one-hybrid fitness for binding NBS DNA
PETF	≤ 0.2
RFGM	≤ 0.2
MTYT	≤ 0.2
QVLW	≤ 0.2
YACT	≤ 0.2
DNLI	≤ 0.2
GSVR	≤ 0.2
IVVF	≤ 0.2
DYFM	≤ 0.2
LYMT	≤ 0.2
YNAS	≤ 0.2
YTCR	≤ 0.2
DCPY	≤ 0.2
QRWS	0.54
YHKY	≤ 0.2
VSVL	≤ 0.2
PVPR	≤ 0.2
GYFS	≤ 0.2
CLEF	≤ 0.2
QVQN	≤ 0.2
RRGT	0.732
DQYD	≤ 0.2
HVLS	≤ 0.2
DRIC	≤ 0.2

Variant	one-hybrid fitness for binding NBS DNA
SIEF	≤ 0.2
KTNQ	≤ 0.2
NIQM	≤ 0.2
RNKL	≤ 0.2
RDYS	≤ 0.2
RTWH	≤ 0.2
AKYS	≤ 0.2
TIYV	≤ 0.2
PRGP	≤ 0.2
PLNY	≤ 0.2
QNPN	≤ 0.2
TDSW	≤ 0.2
LGET	≤ 0.2
GISA	≤ 0.2
VRRK	≤ 0.2
HKRV	≤ 0.2
DGRF	≤ 0.2
VYQR	≤ 0.2
YVML	≤ 0.2
TNKH	≤ 0.2
QCFT	0.424
NMQS	≤ 0.2
KRSD	≤ 0.2
LPLW	≤ 0.2

Variant	one-hybrid fitness for binding NBS DNA
HVTI	≤ 0.2
ATMT	≤ 0.2
QWKF	≤ 0.2
PQRS	≤ 0.2
FDAE	≤ 0.2
ACRC	≤ 0.2
SNEC	≤ 0.2
ETKS	≤ 0.2
WVMV	≤ 0.2
DMPT	≤ 0.2
GCLT	≤ 0.2
YTRC	≤ 0.2
RQDL	≤ 0.2
QCDG	≤ 0.2
RWYV	≤ 0.2
EPGL	≤ 0.2
YKLV	≤ 0.2
SLGY	≤ 0.2
DMGT	≤ 0.2
WPAF	≤ 0.2
FLQS	≤ 0.2
LARV	≤ 0.2
QATH	≤ 0.2
PIYG	≤ 0.2

Variant	one-hybrid fitness for binding NBS DNA
VSSW	≤ 0.2
PNQG	≤ 0.2
MISC	≤ 0.2
RRQK	0.261
KPYR	≤ 0.2
QSDY	≤ 0.2
ACNS	≤ 0.2
PFNA	≤ 0.2
SAKI	≤ 0.2
TVVG	≤ 0.2
AGCP	≤ 0.2
FQTR	≤ 0.2
GMFG	≤ 0.2
SNEV	≤ 0.2
AKKT	≤ 0.2
IFFR	≤ 0.2
FGLE	≤ 0.2
NEQR	≤ 0.2
LNYC	≤ 0.2
LGIS	≤ 0.2
IHNS	≤ 0.2
AYKT	≤ 0.2
LPEY	≤ 0.2
KHYV	≤ 0.2

Variant	one-hybrid fitness for binding NBS DNA
HPCG	≤ 0.2
PYLM	≤ 0.2
RVST	0.463
TKRW	≤ 0.2
ICLF	≤ 0.2
EDLC	≤ 0.2
QGKS	≤ 0.2
CRQA	≤ 0.2
HACA	≤ 0.2
ELMD	≤ 0.2
CHQG	≤ 0.2
DYLR	≤ 0.2
FVGG	≤ 0.2
GREM	≤ 0.2
ELDC	≤ 0.2
CWSG	≤ 0.2
WQEV	≤ 0.2
EYLT	≤ 0.2
TYNP	≤ 0.2
PLLF	≤ 0.2
IPQG	≤ 0.2
RSLT	0.292
NMWR	≤ 0.2
VEIG	≤ 0.2

Variant	one-hybrid fitness for binding NBS DNA
FEMS	≤ 0.2
RYAC	≤ 0.2
NPMM	≤ 0.2
QLTS	0.307
TDVV	≤ 0.2
ALRH	≤ 0.2
LWRR	≤ 0.2
LIHM	≤ 0.2
AHAP	≤ 0.2
HEQR	≤ 0.2
PKPQ	≤ 0.2
RATR	0.43
TTHV	≤ 0.2
VSPW	≤ 0.2
TDIF	≤ 0.2
DQYT	≤ 0.2
IGGI	≤ 0.2
YAHT	≤ 0.2
RDFI	≤ 0.2
PRRR	0.286
MSSV	≤ 0.2
FDWS	≤ 0.2
QRTY	0.519
PYYI	≤ 0.2

Variant	one-hybrid fitness for binding NBS DNA
RVNA	0.261
ARCN	≤ 0.2
VIKS	≤ 0.2
LVCF	≤ 0.2
GLYC	≤ 0.2
VISI	≤ 0.2
MTMR	≤ 0.2
DVSF	≤ 0.2
PLPY	≤ 0.2
GPQS	≤ 0.2
KVTT	≤ 0.2
GCMG	≤ 0.2
NISR	≤ 0.2
ISSC	≤ 0.2
CYMC	≤ 0.2
KNRD	≤ 0.2
FWGS	≤ 0.2
RHQS	0.455
QMFR	0.431
VADL	≤ 0.2
FCIS	≤ 0.2
VGQL	≤ 0.2
RIEN	≤ 0.2
YWPS	≤ 0.2

Variant	one-hybrid fitness for binding NBS DNA
HRQA	≤ 0.2
TRHR	0.409
RCPI	≤ 0.2
TLVQ	≤ 0.2
AQPG	≤ 0.2
IITT	≤ 0.2
IVFS	≤ 0.2
SDFY	≤ 0.2
EKDT	≤ 0.2
PNLC	≤ 0.2
QVVQ	0.234
CWCS	≤ 0.2
SKFR	≤ 0.2
FSRD	≤ 0.2
VSCC	≤ 0.2
NFLG	≤ 0.2
KAKG	≤ 0.2
DTFG	≤ 0.2
DGRL	≤ 0.2
PHCT	≤ 0.2
LFAC	≤ 0.2
TVLY	≤ 0.2
LLMQ	≤ 0.2
QTEI	≤ 0.2

Variant	one-hybrid fitness for binding NBS DNA
SFGH	≤ 0.2
CGTS	≤ 0.2
TNHL	≤ 0.2
FQYT	≤ 0.2
RQEA	≤ 0.2
HQAR	≤ 0.2
DPQC	≤ 0.2
KRPG	≤ 0.2
IASH	≤ 0.2
PVCQ	≤ 0.2
GQYT	≤ 0.2
SKTR	≤ 0.2
TQLY	≤ 0.2
GRVW	≤ 0.2
LGVT	≤ 0.2
TPWW	≤ 0.2
SNKN	≤ 0.2
YQTT	≤ 0.2
PAVS	≤ 0.2
VNSE	≤ 0.2
NTHR	≤ 0.2
TIDR	≤ 0.2
FLFG	≤ 0.2
NRWR	≤ 0.2

Variant	one-hybrid fitness for binding NBS DNA
RSWN	≤ 0.2
ALNG	≤ 0.2
SIAG	≤ 0.2
LMLT	≤ 0.2
YGAA	≤ 0.2
SHPA	≤ 0.2
SFQY	≤ 0.2
SRTN	≤ 0.2
SQLG	≤ 0.2
PHLM	≤ 0.2
WTET	≤ 0.2
TLYF	≤ 0.2
QFHV	≤ 0.2
KKYF	≤ 0.2
QPSC	≤ 0.2
RLKF	≤ 0.2
GKNS	≤ 0.2
GMTI	≤ 0.2
RKQA	0.291
AGGE	≤ 0.2
HRTQ	≤ 0.2
QSGK	≤ 0.2
CHWR	≤ 0.2
VQYA	≤ 0.2

Variant	one-hybrid fitness for binding NBS DNA
QQGS	0.443
DVWG	≤ 0.2
LGVA	≤ 0.2
RISW	≤ 0.2
SSPH	≤ 0.2
GPRL	≤ 0.2
NLCF	≤ 0.2
VRMR	0.218
DHTV	≤ 0.2
THPI	≤ 0.2
FYMA	≤ 0.2
GKKY	≤ 0.2
IYMR	≤ 0.2
ARQG	≤ 0.2
GNNS	≤ 0.2
TCQG	≤ 0.2
HRGS	≤ 0.2
IAAS	≤ 0.2
